# Results are given in words; binding and its absence hold for the method and conditions named. In cells and extracts the contact can be indirect. Some binding calls cover weakened binding; strength is not graded here.
# Sequences of proteins named here, by UniProt entry; tags and fusion partners are left off.
# UniProt P42224: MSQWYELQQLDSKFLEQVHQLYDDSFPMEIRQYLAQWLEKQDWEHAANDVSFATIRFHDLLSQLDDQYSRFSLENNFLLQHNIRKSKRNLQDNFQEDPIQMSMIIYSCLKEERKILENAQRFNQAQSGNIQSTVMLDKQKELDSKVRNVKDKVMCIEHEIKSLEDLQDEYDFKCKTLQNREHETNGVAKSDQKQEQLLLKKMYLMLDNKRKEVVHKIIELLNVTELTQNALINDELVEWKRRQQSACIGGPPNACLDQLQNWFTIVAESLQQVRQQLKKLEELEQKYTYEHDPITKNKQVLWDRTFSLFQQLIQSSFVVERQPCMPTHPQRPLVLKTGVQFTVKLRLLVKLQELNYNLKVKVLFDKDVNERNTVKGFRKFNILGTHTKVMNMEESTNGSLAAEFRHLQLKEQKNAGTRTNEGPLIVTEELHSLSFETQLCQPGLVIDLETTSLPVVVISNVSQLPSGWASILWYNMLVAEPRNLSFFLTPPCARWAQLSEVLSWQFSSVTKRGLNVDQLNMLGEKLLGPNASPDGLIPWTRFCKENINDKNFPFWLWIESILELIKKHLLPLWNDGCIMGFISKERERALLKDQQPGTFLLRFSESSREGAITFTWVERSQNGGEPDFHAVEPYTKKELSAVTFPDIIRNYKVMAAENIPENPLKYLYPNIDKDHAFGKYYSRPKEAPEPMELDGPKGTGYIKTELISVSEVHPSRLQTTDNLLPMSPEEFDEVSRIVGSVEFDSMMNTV
# UniProt P52630: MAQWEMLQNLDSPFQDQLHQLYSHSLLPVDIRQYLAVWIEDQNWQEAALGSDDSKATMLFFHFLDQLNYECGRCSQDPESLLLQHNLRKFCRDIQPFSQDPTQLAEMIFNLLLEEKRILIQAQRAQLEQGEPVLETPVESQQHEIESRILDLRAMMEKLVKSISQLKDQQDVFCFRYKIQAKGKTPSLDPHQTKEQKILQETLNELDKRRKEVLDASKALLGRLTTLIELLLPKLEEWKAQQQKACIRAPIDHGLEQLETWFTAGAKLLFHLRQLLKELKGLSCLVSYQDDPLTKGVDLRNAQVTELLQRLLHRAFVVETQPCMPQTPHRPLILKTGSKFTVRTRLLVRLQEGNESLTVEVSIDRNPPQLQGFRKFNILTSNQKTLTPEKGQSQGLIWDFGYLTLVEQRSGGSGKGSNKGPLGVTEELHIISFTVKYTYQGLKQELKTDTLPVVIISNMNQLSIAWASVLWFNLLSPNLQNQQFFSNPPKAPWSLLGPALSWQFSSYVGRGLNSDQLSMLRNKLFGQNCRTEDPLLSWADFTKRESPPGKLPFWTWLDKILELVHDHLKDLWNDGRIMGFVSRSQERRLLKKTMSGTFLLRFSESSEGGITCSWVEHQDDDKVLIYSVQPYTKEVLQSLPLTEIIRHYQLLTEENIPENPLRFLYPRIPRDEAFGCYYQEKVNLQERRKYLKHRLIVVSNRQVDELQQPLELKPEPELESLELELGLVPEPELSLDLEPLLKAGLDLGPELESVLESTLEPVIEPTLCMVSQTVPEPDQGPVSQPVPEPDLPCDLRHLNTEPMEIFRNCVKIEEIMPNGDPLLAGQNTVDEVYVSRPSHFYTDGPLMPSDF
# Tests used:
# [1] = target: Full length FLAG-tagged IE1 of HCMV AD169 (human cytomegalovirus (HCMV) strain AD169) (UniProt P13202); experiment: co-IP; MRC5 cells nucleofected with full length IE1 (FL), Δ345–491 IE1 (ΔAD) or empty vector, 48 hours later 100 U/mL IFNγ for 30 minutes; total lysate (25 mM Tris, 150 mM NaCl, 1% NP40) reacted with anti-IE1 antibody Mab810 at 4 °C overnight, protein A beads; blots for STAT1, IE1 and STAT2
# [2] = target: Δ345–491 C-terminal truncation mutant of IE1 (FLAG-tagged) (human cytomegalovirus (HCMV) strain AD169) (UniProt P13202); experiment: as above
# [3] = target: Human cytomegalovirus immediate early 1 (IE1) protein, strain AD169, expressed from the infecting virus (human cytomegalovirus (HCMV) strain AD169) (UniProt P13202); experiment: co-IP
# [4] = target: Full length FLAG-tagged IE1 of HCMV AD169 (human cytomegalovirus (HCMV) strain AD169) (UniProt P13202); experiment: co-IP
Substance,binding [1],binding [2],binding [3],binding [4]
Signal transducer and activator of transcription 1 (STAT1) (from UniProt P42224 1-750),no binding,no binding,no binding,–
Signal transducer and activator of transcription 2 (STAT2) (from UniProt P52630 1-851),–,no binding,binds,binds

# Source: paper PMC4014707
